# Experimental data: PubChem BioAssay AID1030 (National Center for Advancing Translational Sciences (NCATS), 2008)
# Hit rate of the full screen: of about 220,000 compounds, about 16,000 (7.3%) were called active. The inconclusive results got no clear call from the source; some entries with a clear call stand among them for comparison. The call rests on the fitted dose curve; in most records, active means well fitted inhibition curve with a large enough effect (not every such curve was filed as active); inconclusive means small, poorly fitted or top-dose-only effect, or another doubt; inactive means no such curve, though single readings can be large or run the other way. Potencies of inconclusive entries are left out as doubtful fits.
# Target: Aldehyde dehydrogenase 1A1 (Homo sapiens) (UniProt P00352)
# Test: qHTS Assay for Inhibitors of Aldehyde Dehydrogenase 1 (ALDH1A1)
# Settings: Purified ALDH1A1, NADH fluorescence, propionaldehyde substrate; series mostly up to 75.3 µM
# Potency means the concentration at half of the fitted maximal effect; tags describe the fitted curve by direction and shape.
# Chain of UniProt P00352 (P00352 whole entry, looked up): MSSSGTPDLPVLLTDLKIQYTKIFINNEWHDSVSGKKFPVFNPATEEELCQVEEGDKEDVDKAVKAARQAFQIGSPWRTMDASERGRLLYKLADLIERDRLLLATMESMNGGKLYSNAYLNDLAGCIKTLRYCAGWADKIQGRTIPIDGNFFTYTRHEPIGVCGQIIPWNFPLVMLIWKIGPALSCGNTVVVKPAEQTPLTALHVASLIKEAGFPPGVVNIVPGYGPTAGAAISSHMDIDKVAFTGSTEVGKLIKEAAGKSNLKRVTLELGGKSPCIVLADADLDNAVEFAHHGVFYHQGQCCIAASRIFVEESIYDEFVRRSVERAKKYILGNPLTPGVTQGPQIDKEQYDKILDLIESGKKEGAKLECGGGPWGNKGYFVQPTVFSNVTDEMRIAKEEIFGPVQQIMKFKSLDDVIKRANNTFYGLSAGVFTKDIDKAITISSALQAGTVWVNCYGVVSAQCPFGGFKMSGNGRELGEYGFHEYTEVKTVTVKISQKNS
row,SMILES,Potency
1,O=C(NC(Cc1c[nH]c2ccccc12)c1nnc2n1CCCCC2)c1ccccc1Cl (configuration not stated),inactive
2,Cc1cccc2cc(C#N)c(SCC(=O)NCc3cccs3)nc12,inactive
3,CCOc1ccc(/C(O)=C2/C(=O)C(=O)N(CCOCCO)C2c2ccccn2)cc1 (configuration not stated),inactive
4,O=C1c2ccccc2COc2ccc(O)cc21,"inconclusive [inhibitor, single point]"
5,Cn1cccc1/C=C1\SC(=S)N(NC(=O)c2ccccc2)C1=O,inactive
6,O=C(/C=C/NNC(=O)c1ccc(Cl)cc1)c1ccccc1,"inconclusive [inhibitor, partial curve]"
7,Cc1cccc(NC(=S)NCCc2c[nH]c3ccccc23)c1,inactive
8,COc1cc(NCc2ccc3nc(N)nc(N)c3c2C)cc(OC)c1OC,"inconclusive [inhibitor, single point]"
9,COC(=O)c1ccc(COc2ccc(/C=N/N3CCN(C)CC3)cc2)cc1,"inconclusive [inhibitor, single point]"
10,COC(=O)c1c(-c2ccc(F)cc2)csc1NC(=O)c1ccco1,"inconclusive [inhibitor, partial curve]"
11,COc1cc(/C=C2/NC(=O)N(Cc3ccccc3F)C2=O)ccc1O,active: 6.31 µM
12,CCC(C)C(=O)Nc1nc(C)c(-c2csc(Nc3cc(OC)ccc3OC)n2)s1 (configuration not stated),"inconclusive [inhibitor, single point]"
13,C[N+]1(Cc2ccccc2)CCC(C(=O)OCC2CCCC2)CC1 (configuration not stated),inactive
14,COc1ccc(/C=C/C(=O)OCC(=O)NCCC2=CCCCC2)cc1OC,"inconclusive [inhibitor, single point]"
15,COC(=O)C1=C(C)NC2=C(C(=O)CC(C)(C)C2)C1c1cccc(C)n1 (configuration not stated),"inconclusive [inhibitor, single point]"
16,O=C(c1ccc2c3c(cccc13)CC2)N1CCOCC1,active: 14.1 µM
17,COc1cccc2oc(-c3ccccc3)cc(=O)c12,"inconclusive [inhibitor, single point]"
18,CCNCc1cc(Cl)cc(OC)c1OC(C)C,"inconclusive [inhibitor, single point]"
19,O=C1CCC/C1=C/Nc1ccc2c(c1)OCO2,"inconclusive [inhibitor, partial curve]"
20,C=CCOC(=O)C(=O)/C=C/c1coc2ccccc2c1=O,active: 31.6 µM
21,COCCn1c(=NC(=O)c2ccco2)sc2cc(C(=O)OC)ccc21,inactive
22,N#C/C(=C/c1ccc(N2CCOCC2)o1)C(=O)N1CCOCC1,"inconclusive [inhibitor, single point]"
